The antibiotic and cytotoxicity screens of Wong et al. (2023)
This is one part of the list.

Key:
[1] = test system: HSkMC (human skeletal muscle cells); assay: cytotoxicity call (relative viability < 0.9); details: 10 µM
[2] = test system: HepG2; assay: cytotoxicity call (relative viability < 0.9); details: 10 µM
[3] = test system: S. aureus RN4220; assay: growth inhibition call (relative growth <= 0.2); details: 50 µM

| Compound | cytotoxicity call [1] | cytotoxicity call [2] | growth inhibition call [3] |
| --- | --- | --- | --- |
| CN1CCCN(C[C@@H]2CN(C(=O)Cn3cccn3)C[C@@H]2CO)CC1 | inactive | inactive | inactive |
| COc1ccc(S(=O)(=O)Nc2ccc3c(c2)CC(=O)N([C@H](C)CO)C[C@@H](C)[C@H](CN(C)Cc2ccc(Oc4ccccc4)cc2)O3)cc1 | active | active | inactive |
| C[C@@H]1CN([C@H](C)CO)C(=O)c2cc(NS(=O)(=O)c3ccc(F)cc3)ccc2O[C@H]1CN(C)Cc1ccc(-c2ccccc2)cc1 | inactive | active | inactive |
| COc1ccc(NC(=O)N(C)C[C@H]2OCCCC[C@H](C)Oc3ccc(NS(=O)(=O)c4c(C)noc4C)cc3C(=O)N([C@H](C)CO)C[C@@H]2C)cc1 | inactive | inactive | inactive |
| Cn1cnc(S(=O)(=O)N[C@H]2C=C[C@@H](CC(=O)NCC3CC3)O[C@@H]2CO)c1 | inactive | inactive | inactive |
| CC(C)NC(=O)N(C)C[C@H]1OCc2cnnn2CCCC(=O)N([C@@H](C)CO)C[C@H]1C | inactive | inactive | inactive |
| Cc1cccc(NC(=O)C(=O)NCCCO)c1 | inactive | inactive | inactive |
| C[C@@H]1CN([C@H](C)CO)C(=O)Cc2cc(NC(=O)NC3CCCCC3)ccc2O[C@@H]1CN(C)C(=O)Nc1ccc(C(F)(F)F)cc1 | inactive | inactive | inactive |
| CN(C)Cc1cn(CC[C@H]2CC[C@@H](N)[C@H](CO)O2)nn1 | inactive | inactive | inactive |
| C[C@@H]1CN([C@H](C)CO)C(=O)Cc2cc(NC(=O)NC3CCCCC3)ccc2O[C@H]1CN(C)S(C)(=O)=O | inactive | inactive | inactive |
| C/C=C/c1ccc2c(c1)O[C@@H](CN(C)S(=O)(=O)c1ccccc1)[C@@H](C)CN([C@@H](C)CO)S2(=O)=O | inactive | inactive | inactive |
| C[C@H](CO)N1C[C@H](C)[C@H](CN(C)S(=O)(=O)c2cn(C)cn2)Oc2ccc(NS(=O)(=O)c3ccc(F)cc3)cc2C1=O | inactive | inactive | inactive |
| O=C(Nc1ccc(Br)cc1)c1ccc(N2C(=O)c3ccc(C(=O)Nc4ccc(Br)cc4)cc3C2=O)cc1 | inactive | inactive | inactive |
| Cc1ccc(S(=O)(=O)N(C)C[C@H]2OCCCC[C@@H](C)Oc3ccc(NC(=O)C4CCCCC4)cc3C(=O)N([C@H](C)CO)C[C@H]2C)cc1 | inactive | inactive | inactive |
| C[C@@H]1CN([C@@H](C)CO)C(=O)c2cc(NS(C)(=O)=O)ccc2O[C@@H]1CN(C)C(=O)Nc1ccccc1 | inactive | inactive | inactive |
| C[C@@H]1CN([C@H](C)CO)C(=O)c2cc(NC(=O)NC3CCCCC3)ccc2O[C@@H]1CN(C)Cc1ccc(C(=O)Nc2ccccc2N)cc1 | inactive | inactive | inactive |
| C[C@@H]1CC[C@@]2(OC1)O[C@H]1C[C@H]3[C@H]4C[C@@H](O)[C@H]5C[C@@H](O[C@@H]6O[C@H](CO)[C@H](O[C@@H]7O[C@H](CO)[C@@H](O)[C@H](O[C@@H]8OC[C@@H](O)[C@H](O)[C@H]8O)[C@H]7O[C@@H]7O[C@H](CO)[C@@H](O)[C@H](O)[C@H]7O)[C@H](O)[C@H]6O)[C@H](O)C[C@]5(C)[C@@H]4CC[C@]3(C)[C@H]1[C@@H]2C | inactive | active | inactive |
| COc1ccc(S(=O)(=O)N(C)C[C@H]2Oc3ccc(NS(=O)(=O)c4ccc(F)cc4)cc3C(=O)N([C@@H](C)CO)C[C@H]2C)cc1 | inactive | inactive | inactive |
| C[C@@H]1CN([C@H](C)CO)C(=O)c2cc(NC(=O)Nc3ccc(F)cc3)ccc2O[C@@H]1CN(C)C(=O)Nc1cccc2ccccc12 | active | inactive | inactive |
| Cc1ccc(S(=O)(=O)Nc2ccc3c(c2)C(=O)N([C@H](C)CO)C[C@H](C)[C@H](CN(C)S(=O)(=O)c2ccc(F)cc2)OCCCC[C@H](C)O3)cc1 | inactive | inactive | inactive |
| COC(=O)/C=C/C(=O)OC | inactive | inactive | inactive |
| C[C@H](CO)N1C[C@H](C)[C@@H](CN(C)S(=O)(=O)c2cn(C)cn2)Oc2ccc(NS(=O)(=O)c3ccccc3)cc2C1=O | inactive | inactive | inactive |
| COCC(=O)Nc1ccc2c(c1)C(=O)N(C)C[C@H](OC)[C@@H](C)CN(Cc1ccccc1OC)[C@H](C)CO2 | inactive | inactive | inactive |
| CC(C)C#Cc1cnc2c(c1)C(=O)N([C@@H](C)CO)C[C@H](C)[C@@H](CN(C)S(=O)(=O)c1cn(C)cn1)O2 | inactive | inactive | inactive |
